{"source": "PubChem BioAssay AID1460", "about": "(National Center for Advancing Translational Sciences (NCATS), 2008)", "note": "Values joined by “and” are separate entries in the source; they are usually repeats but may differ in a detail not shown here. Equal values may be shown once. In all, about 270,000 compounds went through this assay and about 5,800 (2.1%) were called active. Inconclusive means that the source gave no clear call. Such entries were picked first, then a sample of the others. Calls follow the shape of the dose curve; as a rule, active = well fitted inhibition curve with a large enough effect; inconclusive = small, poorly fitted or top-dose-only effect; inactive = flat fitted curve, though single readings scatter. Where the call is inconclusive, the potency comes from a doubtful curve fit. % is scaled to controls: 0 for no effect and ±100 for the full control effect; potency is read from the fitted curve at half-maximal effect; tags tell the direction and shape of the fitted curve."}
{"target": "Microtubule-associated protein tau (Homo sapiens) (UniProt P10636)", "sequence (P10636 whole entry, looked up, the tested form may be a part)": "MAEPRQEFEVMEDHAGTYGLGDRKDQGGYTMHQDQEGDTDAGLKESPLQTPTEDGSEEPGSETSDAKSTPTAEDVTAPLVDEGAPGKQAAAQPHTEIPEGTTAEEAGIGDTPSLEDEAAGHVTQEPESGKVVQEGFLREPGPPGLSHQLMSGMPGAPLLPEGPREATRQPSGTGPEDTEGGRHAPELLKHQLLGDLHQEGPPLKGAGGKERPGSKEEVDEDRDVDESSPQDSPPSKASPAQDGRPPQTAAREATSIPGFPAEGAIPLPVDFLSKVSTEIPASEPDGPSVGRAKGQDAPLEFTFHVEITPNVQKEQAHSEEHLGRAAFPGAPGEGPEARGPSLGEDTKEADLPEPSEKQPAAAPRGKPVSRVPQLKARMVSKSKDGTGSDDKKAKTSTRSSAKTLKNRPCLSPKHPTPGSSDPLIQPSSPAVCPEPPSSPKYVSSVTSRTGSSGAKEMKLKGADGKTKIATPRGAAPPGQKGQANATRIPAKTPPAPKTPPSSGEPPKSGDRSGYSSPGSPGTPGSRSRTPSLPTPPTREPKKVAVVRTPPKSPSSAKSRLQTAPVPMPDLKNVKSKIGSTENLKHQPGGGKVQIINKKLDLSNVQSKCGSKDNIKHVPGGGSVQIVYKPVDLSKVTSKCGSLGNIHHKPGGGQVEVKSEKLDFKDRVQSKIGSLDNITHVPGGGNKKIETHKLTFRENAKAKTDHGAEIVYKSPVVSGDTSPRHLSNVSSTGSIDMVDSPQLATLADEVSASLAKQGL", "experiment": "qHTS for Inhibitors of Tau Fibril Formation, Thioflavin T Binding; also: nearly all actives have a fitted effect of over 55% in size", "settings": "recombinant tau K18 P301L (four-repeat tau fragment), heparin-induced fibrillization, ThT fluorescence; series mostly up to 57.4 µM; activity, negative = inhibition: at the top concentration", "in_short": "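Heparin-induced (20 uM) aggregation of recombinant human K18 P301L tau, 15 uM unlabeled with 0.24 uM labeled, pH 7 acetate buffer, 6 hr at 37 C with compound. Fibrils quantified by 30 uM ThT fluorescence after 1 hr ambient incubation.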"}
{"smiles": "CC(Sc1ncnc2ccccc12)C(=O)Nc1ccc2c(c1)OCO2", "note": "(stereo unspecified)", "Potency": "inconclusive: 15.8 µM [inhibitor, single point]"}
{"smiles": "Cc1ccc(CSc2nc3c(c(=O)[nH]2)C(c2cccc(F)c2F)CC(=O)N3)cc1", "note": "(stereo unspecified)", "activity, negative = inhibition": "inactive: 9.61%"}
{"smiles": "CCN(CC)c1ccc2c(c1)C(=O)N(C)C2=O", "Potency": "inconclusive: 20 µM [inhibitor, partial curve, poor fit]"}
{"smiles": "Cc1cc2nc(SCCOC(=O)Nc3cccc(Cl)c3)nc(C)c2cc1C", "Potency": "inconclusive: 25.1 µM [inhibitor, single point]"}
{"smiles": "Cc1nn(Cc2c(Cl)cccc2Cl)c(Cl)c1/C=N/NC(=O)c1cccnc1", "activity, negative = inhibition": "inactive: -8.28%"}
{"smiles": "O=c1c2cnn(-c3ccccc3)c2ncn1Cc1ccccn1", "activity, negative = inhibition": "inactive: -9.68%"}
{"smiles": "FC(F)(F)c1cc(-c2cccs2)nc(-n2cc(Br)cn2)n1", "Potency": "inconclusive: 39.8 µM [inhibitor, partial curve]"}
{"smiles": "CN1CCc2c(sc3c2C(=O)NC(c2ccc(OC(=O)c4ccc(Cl)cc4)cc2)N3)C1", "note": "(stereo unspecified)", "Potency": "active: 6.31 µM"}
{"smiles": "COC(=O)[C@@]1(Cc2ccc(OC)cc2)[C@H]2c3cc(C(=O)N4CCCC4)n(Cc4cc(F)cc5c4OCOC5)c3C[C@H]2CN1C(=O)c1ccccc1", "Potency": "inconclusive: 11.2 µM [inhibitor, partial curve]"}
{"smiles": "Cc1ccc(-n2c(-c3ccccc3)c[n+]3c2CCc2ccccc2-3)c(C)c1", "activity, negative = inhibition": "inactive: -1.82%"}
{"smiles": "Nc1cccc(-c2nc3ccc(N)cc3s2)c1", "Potency": "inconclusive: 12.6 µM [inhibitor, partial curve]"}
{"smiles": "CCOc1cc(/C=C2/C(=O)N(c3ccccc3)N=C2C)ccc1OC(=O)c1ccco1", "Potency": "inconclusive: 15.8 µM [inhibitor, partial curve]"}
{"smiles": "CCOC(=O)c1ccc(NC(=O)c2nc[nH]c2C(=O)N[C@@H](CC(C)C)C(=O)OCc2ccccc2)cc1", "Potency": "inconclusive: 0.562 µM [activator, full curve, poor fit]"}
{"smiles": "COC(=O)c1ccc(NC(=O)Nc2ccc(OC)c(OC)c2)cc1", "Potency": "inconclusive: 11.2 µM [inhibitor, partial curve]"}
{"smiles": "COCCNc1nc(-c2cc(C)c(C)cc2C)cs1", "Potency": "inconclusive: 11.2 µM [inhibitor, partial curve]"}
{"smiles": "CCc1ccccc1Nc1nn2c(=O)c3ccc(C(=O)NCc4ccccc4Cl)cc3nc2s1", "Potency": "inconclusive: 2.24 µM [inhibitor, full curve, poor fit]"}
{"smiles": "CCOC(=O)CSC1=Nc2ccccc2C2=NC(CC(=O)NCc3ccccc3)C(=O)N12", "note": "(stereo unspecified)", "Potency": "inconclusive: 20 µM [inhibitor, partial curve]"}
{"smiles": "O=C(Nc1nc2ccccc2s1)C1CCN(S(=O)(=O)c2cc([N+](=O)[O-])ccc2Cl)CC1", "Potency": "inconclusive: 17.8 µM [inhibitor, partial curve, poor fit]"}
{"smiles": "N#C/C(=C\\c1ccc(-c2ccc(C(=O)O)cc2)o1)c1nc2ccccc2[nH]1", "Potency": "inconclusive: 35.5 µM [inhibitor, single point] and inconclusive: 39.8 µM [inhibitor, single point]"}
{"smiles": "Cc1ccc(-c2nnc(Nc3ccc(S(N)(=O)=O)cc3)c3ccccc23)cc1S(=O)(=O)N1CCCCC1", "activity, negative = inhibition": "inactive: 5.47%"}
{"smiles": "CCOc1cc(/C=N/Nc2nc(-c3cccs3)c(NC(C)=O)s2)ccc1O", "Potency": "active: 25.1 µM"}
{"smiles": "CC1=C(C)CS(=O)N(S(=O)(=O)c2ccc(Cl)cc2)C1", "note": "(stereo unspecified)", "Potency": "inconclusive: 3.55 µM [inhibitor, single point]"}
{"smiles": "C=CCOc1ccccc1CNc1cccc(F)c1", "Potency": "inconclusive: 12.6 µM [inhibitor, single point]"}
{"smiles": "COc1ccc(Nc2ccc(N3C(=O)CC(C)C3=O)cc2[N+](=O)[O-])cc1OC", "note": "(stereo unspecified)", "Potency": "inconclusive: 11.2 µM [inhibitor, partial curve, poor fit]"}
{"smiles": "Cc1ccc(NC(=O)c2c(C)oc3ccc(O)c(CN4CCCCC4)c23)c(C)c1", "Potency": "inconclusive: 25.1 µM [inhibitor, single point]"}
{"smiles": "CC(C)C(NS(=O)(=O)c1ccc2c(c1)oc(=O)n2C)C(=O)NCCc1ccc(Cl)cc1", "note": "(stereo unspecified)", "activity, negative = inhibition": "inactive: 4.63%"}
{"smiles": "CCOc1ccc(Nc2c(S(=O)(=O)c3ccccc3)cnc3ccccc23)cc1", "Potency": "inconclusive: 12.6 µM [inhibitor, partial curve]"}
{"smiles": "CC(C)C[C@@H]1NC(=O)[C@H](Cc2ccc(O)cc2)NC(=O)c2cc([N+](=O)[O-])cc(I)c2NCCC[C@@H](C(N)=O)NC1=O", "Potency": "inconclusive: 7.94 µM [inhibitor, partial curve]"}
{"smiles": "CCCNC(=S)Nc1ccc(Oc2ccccc2)cc1", "Potency": "inconclusive: 28.2 µM [inhibitor, partial curve, poor fit]"}
{"smiles": "Cc1ccc(N=Nc2c(=O)[nH]n3c(C)cc(C)nc23)cc1", "Potency": "active: 20 µM"}
{"smiles": "CN(Cc1ccco1)S(=O)(=O)c1nnc(NC(=O)c2cccc(Cl)c2)s1", "Potency": "inconclusive: 0.708 µM [inhibitor, full curve, poor fit]"}
{"smiles": "O=C(C1CC1)N1CCc2cc(Br)cc(S(=O)(=O)NCc3ccco3)c21", "Potency": "inconclusive: 3.55 µM [inhibitor, partial curve, poor fit]"}
{"smiles": "O=C(N1CCCCC1)N1CCN(c2ccc(Cl)cc2)CC1", "activity, negative = inhibition": "inactive: -23.4%"}
{"smiles": "CCOC(=O)CCN1C(=O)[C@@H]2[C@H]3C(=CC[C@H]2C1=O)C(=O)[C@H]1O[C@H]1[C@H]3O", "Potency": "active: 3.98 µM"}
{"smiles": "CCOc1ccc(N/C=C/C(=O)c2ccc(C)cc2)c([N+](=O)[O-])c1", "Potency": "active: 1.12 µM"}
{"smiles": "N#CC1=C(N)Oc2n[nH]c(-c3cccs3)c2C1c1cccnc1", "note": "(stereo unspecified)", "Potency": "inconclusive: 22.4 µM [inhibitor, single point]"}
{"smiles": "CCOC(=O)c1c(N)sc(C(=O)N2CCCCCC2)c1C", "activity, negative = inhibition": "inactive: -2.26%"}
{"smiles": "O=C(N/N=C/c1ccc(Cl)c([N+](=O)[O-])c1)c1ccc2nc[nH]c2c1", "Potency": "inconclusive: 14.1 µM [inhibitor, partial curve]"}
{"smiles": "Cc1nc2ccccc2nc(=O)c1NNc1ccc([N+](=O)[O-])cc1", "Potency": "active: 11.2 µM"}
{"smiles": "CN1C(=O)C2(SCC(=O)N2c2ccc(F)cc2)c2ccccc21", "note": "(stereo unspecified)", "activity, negative = inhibition": "inactive: 7.82%"}
{"smiles": "COc1cc(OC)c(NC(=S)Nc2cccc(C(C)=O)c2)cc1Cl", "Potency": "inconclusive: 35.5 µM [inhibitor, single point]"}
{"smiles": "CCCCOc1ccc(-c2c(C(=O)Nc3ccccc3)c(C)[nH]c(=S)c2C#N)cc1", "activity, negative = inhibition": "inactive: -14.5%"}
{"smiles": "CC(=O)c1sc(-c2ccccc2)cc1N", "Potency": "inconclusive: 5.62 µM [inhibitor, partial curve]"}
{"smiles": "Cn1cnc([N+](=O)[O-])c1Sc1n[nH]c(N)n1", "Potency": "inconclusive: 17.8 µM [inhibitor, partial curve, poor fit]"}
{"smiles": "CC12C=C(/C=C/CCc3ccco3)C(C)(C1)C(CCc1ccco1)CC2=O", "note": "(stereo unspecified)", "Potency": "inconclusive: 3.16 µM [inhibitor, partial curve]"}
{"smiles": "Cc1ccc(-n2c(SCC(=O)NCc3ccco3)nnc2-c2cccnc2)c(C)c1", "Potency": "inconclusive: 22.4 µM [inhibitor, partial curve]"}
{"smiles": "CN1/C(=N\\O)c2cccc3cccc1c23", "Potency": "inconclusive: 15.8 µM [inhibitor, partial curve]"}
{"smiles": "CC(=O)SC1CC2=CC(=O)CC[C@]2(C)C2CC[C@@]3(C)[C@@H](CC[C@@]34CCC(=O)O4)C12", "note": "(stereo partly specified)", "activity, negative = inhibition": "inactive: -17.8%"}
{"smiles": "Cc1cc(=O)n(CCc2ccccc2)c(O)c1C#N", "Potency": "inconclusive: 17.8 µM [inhibitor, partial curve]"}
{"smiles": "CC(=O)c1cc(NC(=O)c2ccc([N+](=O)[O-])cc2)c(=O)oc1C", "Potency": "inconclusive: 20 µM [inhibitor, partial curve]"}
{"smiles": "Cc1cc(C)c(S(=O)(=O)/N=C2\\C=CC(=O)C(Cl)=C2)c(C)c1", "Potency": "inconclusive: 31.6 µM [inhibitor, single point]"}
{"smiles": "CC1(C)Cc2ccccc2/C(=C/C(=O)N2CCCCCC2)N1", "Potency": "inconclusive: 20 µM [inhibitor, single point]"}
{"smiles": "CCn1cc(C(=O)NCCc2ccc(Cl)cc2)c(=O)c2cc(S(=O)(=O)N3CCC(C)CC3)ccc21", "activity, negative = inhibition": "inactive: -4.28%"}
{"smiles": "C/C(=N\\NC(=O)c1cccc(C)c1)c1cccc(NC(=O)c2ccco2)c1", "Potency": "inconclusive: 6.31 µM [inhibitor, partial curve]"}
{"smiles": "Cc1cccc(N2CCN(c3nc4ccc(C)cc4n4cnnc34)CC2C)c1", "note": "(stereo unspecified)", "Potency": "inconclusive: 7.94 µM [inhibitor, partial curve]"}
{"smiles": "O=C(NCc1cccs1)c1ccc([N+](=O)[O-])cc1", "activity, negative = inhibition": "inactive: -12%"}
{"smiles": "O=C(NCCN1CCN(c2ccccc2)CC1)C1CCN(S(=O)(=O)c2cccs2)CC1", "Potency": "inconclusive: 28.2 µM [inhibitor, single point]"}
{"smiles": "O=C(C1CCN(S(=O)(=O)c2cccc3cccnc23)CC1)N1CCN(c2ccc(Cl)cc2)CC1", "Potency": "inconclusive: 15.8 µM [inhibitor, single point]"}
{"smiles": "O=C(NNC(=S)Nc1cccc2ccccc12)c1cccc(Br)c1", "Potency": "inconclusive: 28.2 µM [inhibitor, partial curve]"}
{"smiles": "COc1ccc(N2CCN(C(=O)c3cc(S(=O)(=O)N4CCC(C)CC4)cn3C)CC2)cc1", "activity, negative = inhibition": "inactive: -0.281%"}
{"smiles": "COc1cc(OC)c(OC)cc1/C=N/NC(=O)c1cc(-c2cccn2C)n[nH]1", "Potency": "active: 12.6 µM"}
{"smiles": "CSc1nc(=NC(C)=O)ss1", "Potency": "active: 25.1 µM"}
{"smiles": "CCCCn1c(-c2ccco2)n[nH]c1=S", "activity, negative = inhibition": "inactive: 5.87%"}
{"smiles": "CCCC[C@H]1C[C@@H]1[C@@H]1N(C(C)=O)[C@H](c2cccc(OC)c2)CC12CC2", "Potency": "inconclusive: 0.0562 µM [inhibitor, full curve, poor fit]"}
{"smiles": "Cn1cccc1CC(=O)NNC(=S)Nc1ccc(Cl)cc1", "activity, negative = inhibition": "inactive: -9.28%"}
{"smiles": "O=C1c2ccccc2C(=O)c2c1oc(C(F)(F)F)c2C(=O)c1ccccc1", "Potency": "inconclusive: 12.6 µM [inhibitor, partial curve]"}
